The chains are these.
B1: GPR68, Q15743 (parent)
chain: MGNITADNSSMSCTIDHTIHQTLAPVVYVTVLVVGFPANCLSLYFGYLQIKARNELGVYLCNLTVADLFYICSLPFWLQYVLQHDNWSHGDLSCQVCGILLYENIYISVGFLCCISVDRYLAVAHPFRFHQFRTLKAAVGVSVVIWAKELLTSIYFLMHEEVIEDENQHRVCFEHYPIQAWQRAINYYRFLVGFLFPICLLLASYQGILRAVRRSHGTQKSRKDQIQRLVLSTVVIFLACFLPYHVLLLVRSVWEASCDFAKGVFNAYHFSLLLTSFNCVADPVLYCFVSETTHRDLARLRGACLAFLTCSRTGRAREAYPLGAPEASGKSGAQGEEPELLTKLHPAFQTPNSPGSGGFPTGRLA

Scores with a large standard error are left out. The source holds two more conditions with little spread; they are left out. Names with del lack the residues named; names with ins carry added residues between the positions named. For part of these data: The concentration of ogerin is not given here.

In data set [1] the parent is B1. As to the kind of experiment: cAMP reporter score (Enrich2 score, wild type = 0); higher = more signal; HEK293T, FACS bins.
Data set [2] covers variants of B1. Nature of the data set: surface expression score (Enrich2 score, wild type = 0); higher = more signal; HEK293T, FACS bins.

Regarding C240_F241insGSG, the cAMP reporter score in data set [1] (pH 5.5) is -2.1; in data set [1] (pH 6, modulator: ogerin) it was -1.68; in data set [1] (pH 6.5, modulator: ogerin), -0.601. Further, in data set [2], the surface expression score is -2.25.
As to V250F, the cAMP reporter score in data set [1] (pH 5.5) was 0.643; in data set [1] (pH 6) it was 0.303; in data set [1] (pH 6, modulator: ogerin), -0.074; in data set [1] (pH 6.5, modulator: ogerin) it was -0.119.
Take V250E: the cAMP reporter score in data set [1] (pH 5.5) was -1.03; in data set [1] (pH 6), -1.75; in data set [1] (pH 6, modulator: ogerin), -1.13; in data set [1] (pH 6.5, modulator: ogerin) it was -0.871. In addition, in data set [2], the surface expression score was -2.39.
Regarding V250D, the cAMP reporter score is -1.22 in data set [1] (pH 5.5); 0.419 in data set [1] (pH 6); -0.163 in data set [1] (pH 6, modulator: ogerin); -1.16 in data set [1] (pH 6.5, modulator: ogerin). Further, the surface expression score in data set [2] is -0.63.
As for V250C, the cAMP reporter score turned out to be 1.08 in data set [1] (pH 5.5); 1.68 in data set [1] (pH 6, modulator: ogerin); 0.963 in data set [1] (pH 6.5, modulator: ogerin).
Regarding V250A, the cAMP reporter score in data set [1] (pH 5.5) is -0.496; in data set [1] (pH 6), -0.213; in data set [1] (pH 6, modulator: ogerin) it was -0.606; in data set [1] (pH 6.5, modulator: ogerin) it was -0.462. Moreover, the surface expression score in data set [2] is -0.459.
In the case of H245_L247del, the cAMP reporter score in data set [1] (pH 5.5) is -1.28; in data set [1] (pH 6), 0.317; in data set [1] (pH 6, modulator: ogerin), -1.28; in data set [1] (pH 6.5, modulator: ogerin), -1.03. Moreover, the surface expression score in data set [2] was -1.96.
As for A239_F241del, the cAMP reporter score in data set [1] (pH 5.5) is -1.34; in data set [1] (pH 6), -0.433; in data set [1] (pH 6, modulator: ogerin), -2.65; in data set [1] (pH 6.5, modulator: ogerin), -1.16. In data set [2], the surface expression score was -2.51.
With C240_F241insG, the cAMP reporter score in data set [1] (pH 5.5) was -1.38; in data set [1] (pH 6), -1.22; in data set [1] (pH 6.5, modulator: ogerin), -1.33. Also, the surface expression score in data set [2] is -2.39.
As to V246_L247insG, the cAMP reporter score in data set [1] (pH 5.5) is -1.22; in data set [1] (pH 6, modulator: ogerin), -2.83; in data set [1] (pH 6.5, modulator: ogerin), -0.749.
With F241_L242insG, the cAMP reporter score is -1.65 in data set [1] (pH 5.5); -1.57 in data set [1] (pH 6); -1.64 in data set [1] (pH 6, modulator: ogerin); -0.935 in data set [1] (pH 6.5, modulator: ogerin). For the same variant, in data set [2], the surface expression score was -2.64.
For the variant P243_Y244del, the cAMP reporter score was -1.6 in data set [1] (pH 5.5); -1.23 in data set [1] (pH 6); -1.14 in data set [1] (pH 6, modulator: ogerin); -1.11 in data set [1] (pH 6.5, modulator: ogerin). Besides, the surface expression score in data set [2] is -3.15.
As to P243_H245del, the cAMP reporter score in data set [1] (pH 5.5) was -0.977; in data set [1] (pH 6) it was -0.666; in data set [1] (pH 6, modulator: ogerin) it was -1.24; in data set [1] (pH 6.5, modulator: ogerin) it was -1.08. Also, the surface expression score in data set [2] was -2.18.
Turning to P243I, the cAMP reporter score is -1.62 in data set [1] (pH 5.5); -0.319 in data set [1] (pH 6); -1.3 in data set [1] (pH 6, modulator: ogerin); -1.17 in data set [1] (pH 6.5, modulator: ogerin). Further, the surface expression score in data set [2] is -2.68.
For P243L, the cAMP reporter score in data set [1] (pH 5.5) was -1.7; in data set [1] (pH 6) it was -1.14; in data set [1] (pH 6, modulator: ogerin) it was -1.78; in data set [1] (pH 6.5, modulator: ogerin), -1.22. The surface expression score in data set [2] is -2.44.
Turning to P243E, the cAMP reporter score was -1.41 in data set [1] (pH 5.5); -1.23 in data set [1] (pH 6); -1.02 in data set [1] (pH 6, modulator: ogerin); -0.658 in data set [1] (pH 6.5, modulator: ogerin). Further, the surface expression score in data set [2] was -1.69.
The corresponding values for P243A are -0.713, -0.514, -1.41, -0.926 and -2.12.
For the variant P243V, the cAMP reporter score in data set [1] (pH 5.5) was -0.925; in data set [1] (pH 6) it was -1.01; in data set [1] (pH 6, modulator: ogerin), -1.01; in data set [1] (pH 6.5, modulator: ogerin) it was -0.961. Also, the surface expression score in data set [2] was -1.29.
As to P243C, the cAMP reporter score in data set [1] (pH 5.5) was -1.84; in data set [1] (pH 6), -1.05; in data set [1] (pH 6, modulator: ogerin) it was -2.64; in data set [1] (pH 6.5, modulator: ogerin), -0.898. In addition, the surface expression score in data set [2] was -1.98.
In the case of P243N, the cAMP reporter score in data set [1] (pH 5.5) is -1.26; in data set [1] (pH 6, modulator: ogerin) it was -0.987; in data set [1] (pH 6.5, modulator: ogerin) it was -1.24. The surface expression score in data set [2] is -3.04.
P243D: the cAMP reporter score was -1.89 in data set [1] (pH 5.5); -2.3 in data set [1] (pH 6); -1.01 in data set [1] (pH 6, modulator: ogerin); -0.75 in data set [1] (pH 6.5, modulator: ogerin). Also, the surface expression score in data set [2] is -1.77.
Take P243T: the cAMP reporter score in data set [1] (pH 5.5) was -1.56; in data set [1] (pH 6), -1.86; in data set [1] (pH 6, modulator: ogerin), -1.5; in data set [1] (pH 6.5, modulator: ogerin), -1.03. Also, in data set [2], the surface expression score was -1.79.
Take P243W: the cAMP reporter score in data set [1] (pH 5.5) was -1.75; in data set [1] (pH 6), -1.26; in data set [1] (pH 6, modulator: ogerin), -1.33; in data set [1] (pH 6.5, modulator: ogerin), -1.65. For the same variant, the surface expression score in data set [2] is -1.94.
Regarding P243F, the cAMP reporter score was -1.08 in data set [1] (pH 5.5); -0.871 in data set [1] (pH 6); -1.81 in data set [1] (pH 6, modulator: ogerin); -0.789 in data set [1] (pH 6.5, modulator: ogerin). For the same variant, the surface expression score in data set [2] was -0.461.
For P243M, the cAMP reporter score is -1.34 in data set [1] (pH 5.5); -1 in data set [1] (pH 6); -1.3 in data set [1] (pH 6, modulator: ogerin); -0.622 in data set [1] (pH 6.5, modulator: ogerin). The surface expression score in data set [2] was -1.5.
As to P243S, the cAMP reporter score in data set [1] (pH 5.5) was -1.21; in data set [1] (pH 6) it was -0.267; in data set [1] (pH 6, modulator: ogerin), -1.79; in data set [1] (pH 6.5, modulator: ogerin) it was -1.53. In addition, the surface expression score in data set [2] was -1.8.
For P243G, in that order: -1.36, -1.2, -1.45, -0.868 and -1.55.
P243K: the cAMP reporter score in data set [1] (pH 5.5) is -1.69; in data set [1] (pH 6), -0.823; in data set [1] (pH 6, modulator: ogerin) it was -1.37; in data set [1] (pH 6.5, modulator: ogerin), -0.533. In addition, the surface expression score in data set [2] is -2.72.
For P243R, the cAMP reporter score is -0.952 in data set [1] (pH 5.5); -0.788 in data set [1] (pH 6); -1.77 in data set [1] (pH 6, modulator: ogerin); -1.63 in data set [1] (pH 6.5, modulator: ogerin). The surface expression score in data set [2] is -1.47.
As to P243Q, the cAMP reporter score in data set [1] (pH 5.5) was -1.22; in data set [1] (pH 6), -1.06; in data set [1] (pH 6, modulator: ogerin), -1.23; in data set [1] (pH 6.5, modulator: ogerin), -1.55. Also, the surface expression score in data set [2] was -2.1.
Regarding P243Y, the cAMP reporter score in data set [1] (pH 5.5) is -1.06; in data set [1] (pH 6), -1.48; in data set [1] (pH 6, modulator: ogerin), -0.585; in data set [1] (pH 6.5, modulator: ogerin), -1.03. In data set [2], the surface expression score is -2.2.

For the origin of these results see the GPR68 mutational scans of Howard et al. (2025).
